# Measurements reported in publication PMC9862037, “Interactions of Mycotoxin Alternariol with Cytochrome P450 Enzymes and OATP Transporters” (Metabolites, 2022).
# Target: OATP1B1 (Homo sapiens, UniProt Q9Y6L6)
# Format: cell-based
# Design: expressed in transfected cells
# Details: Ace 5 µM preloading, E1S 50 μM, PFA 0.5%; for fluorescence signal in the CCF: AOH from two-fold of its IC50; for effect on efflux of the probe: buffer pH 5.5 without probe
# Description: The assays were performed as described recently. Cells were seeded on 96-well plates one day prior to the measurement. After washing three times with PBS at room temperature, cells were incubated for 15 min with 8-acetoxy-1,3,6-trisulfopyrene (Ace, 5 µM). After this “preloading” stage, the supernatant was removed, and the cells were incubated with the same amount of the probe (Counterflow assay) or without the probe in buffer pH 5.5 (Efflux assay) in the absence and the presence of AOH for further 20 min. Fixed concentrations of AOH were selected based on the IC50 values determined in the transport inhibition assay. […]. Cells were washed three times with ice-cold PBS, then NaOH solution (0.1 N, 200 µL/well) was added. After 20 min, fluorescence was measured with an Enspire plate reader in Ex/Em wavelengths 460/510 nm. Bottom reading was applied with two horizontal (X) and two vertical (Y) points, measurement height was 3 mm with 200 flashes. Fluorescence was compared to the preloaded control incubated with Ace alone, considered as 100%.
# Sequence of UniProt Q9Y6L6 (Q9Y6L6 whole entry): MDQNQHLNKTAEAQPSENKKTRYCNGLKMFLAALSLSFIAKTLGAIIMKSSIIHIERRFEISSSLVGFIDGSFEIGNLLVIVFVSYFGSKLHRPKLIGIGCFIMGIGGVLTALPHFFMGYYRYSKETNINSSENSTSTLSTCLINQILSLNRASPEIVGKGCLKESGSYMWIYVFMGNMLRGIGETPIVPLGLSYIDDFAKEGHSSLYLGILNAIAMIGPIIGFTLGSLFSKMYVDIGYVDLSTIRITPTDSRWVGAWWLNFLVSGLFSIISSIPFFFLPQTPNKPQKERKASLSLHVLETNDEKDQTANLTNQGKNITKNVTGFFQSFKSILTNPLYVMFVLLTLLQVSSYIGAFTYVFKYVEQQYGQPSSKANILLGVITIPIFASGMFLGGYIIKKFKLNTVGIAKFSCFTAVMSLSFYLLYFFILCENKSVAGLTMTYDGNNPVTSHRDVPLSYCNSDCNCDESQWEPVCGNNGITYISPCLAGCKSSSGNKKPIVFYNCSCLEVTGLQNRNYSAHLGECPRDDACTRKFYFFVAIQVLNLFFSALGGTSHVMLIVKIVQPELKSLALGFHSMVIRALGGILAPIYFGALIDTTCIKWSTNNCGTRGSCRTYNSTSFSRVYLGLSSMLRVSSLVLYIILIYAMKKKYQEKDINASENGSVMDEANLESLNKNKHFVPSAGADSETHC
SMILES,fluorescence signal in the CCF,effect on efflux of the probe
"Cc1cc(O)cc2oc(=O)c3c(O)cc(O)cc3c12 [AOH, Alternariol]",decrease in the fluorescence signal,not inhibiting efflux
"C[C@]12CC[C@@H]3c4ccc(OS(=O)(=O)O)cc4CC[C@H]3[C@@H]1CCC2=O [E1S, Estrone-3-sulfate]",decrease in the fluorescence signal,not inhibiting efflux
